Assay results reported in PubChem BioAssay AID2676 (National Center for Advancing Translational Sciences (NCATS), 2010).
The whole screen tested about 370,000 compounds, of which about 1,100 (0.3%) were called active. This list was built around the results that the source calls inconclusive (neither active nor inactive); the mix of calls is not that of the screen. Calls follow the shape of the dose curve; as a rule, active = well fitted activation curve with a large enough effect; inconclusive = small, poorly fitted or top-dose-only effect; inactive = flat fitted curve, though single readings scatter. A potency beside an inconclusive call is a rough fit, not a confirmed value.

Molecular target: Relaxin receptor 1 (Homo sapiens) (UniProt Q9HBX9)
Test: qHTS Assay for Agonists of the Relaxin Receptor RXFP1; also: nearly all actives have a fitted effect of over 60% in size
Details: HEK293T-RXFP1 cAMP TR-FRET, 30 min; series mostly up to 57.5 µM; activation: at the top concentration
Outline: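 Agonist response is measured as cAMP accumulation in an RXFP1-transfected HEK293T line under PDE4 inhibition. Values are scaled between buffer-only and 29 nM porcine relaxin, and EC50s come from standard Hill equation fits.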
% is scaled to controls: 0 for no effect and ±100 for the full control effect; potency is read from the fitted curve at half-maximal effect; tags tell the direction and shape of the fitted curve.

UniProt Q9HBX9, sequence (Q9HBX9 whole entry, looked up): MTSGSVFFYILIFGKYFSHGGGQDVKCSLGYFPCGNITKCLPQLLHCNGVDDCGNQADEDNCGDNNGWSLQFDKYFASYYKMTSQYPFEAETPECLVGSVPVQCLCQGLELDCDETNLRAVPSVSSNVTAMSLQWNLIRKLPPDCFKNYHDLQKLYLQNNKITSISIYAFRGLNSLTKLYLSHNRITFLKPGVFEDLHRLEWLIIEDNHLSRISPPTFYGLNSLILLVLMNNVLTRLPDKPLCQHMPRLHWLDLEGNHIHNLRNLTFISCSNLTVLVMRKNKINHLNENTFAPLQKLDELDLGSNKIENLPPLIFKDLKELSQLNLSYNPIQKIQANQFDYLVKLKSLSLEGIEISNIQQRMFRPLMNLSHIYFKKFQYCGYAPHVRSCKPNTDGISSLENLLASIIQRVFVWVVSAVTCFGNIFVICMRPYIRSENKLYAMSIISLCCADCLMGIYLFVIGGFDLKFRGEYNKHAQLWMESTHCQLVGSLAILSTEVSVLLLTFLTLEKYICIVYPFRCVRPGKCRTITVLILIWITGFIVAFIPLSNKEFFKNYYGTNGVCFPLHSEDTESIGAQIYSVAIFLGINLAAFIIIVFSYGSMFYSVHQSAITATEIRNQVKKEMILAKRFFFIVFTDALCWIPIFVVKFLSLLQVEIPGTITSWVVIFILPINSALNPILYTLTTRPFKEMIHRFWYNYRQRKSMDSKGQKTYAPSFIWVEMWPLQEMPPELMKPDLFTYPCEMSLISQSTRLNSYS

Potency, inconclusive:
CC(C(=O)OCC(=O)N(C)C1(C#N)CCCCC1)N1C(=O)c2ccccc2C1=O (stereo not given) 15.8 µM [activator, partial curve]
CCCc1nnc(NC(=S)Nc2ccccc2)s1 39.8 µM [activator, single point]
O=C(Nc1ccc(F)cc1F)c1cc2ccc3cccnc3c2[nH]1 35.5 µM [activator, single point]
CCOC(=O)CSc1nc(N)c(C#N)c(-c2ccc(OC)cc2)c1C#N 39.8 µM [activator, single point]
Cc1nc(SCC(=O)Nc2ccccc2Cl)cc(-c2ccccc2)n1 39.8 µM [activator, single point]
O=C(Nc1ccc(Br)cc1F)c1ccc2nc(CCc3ccccc3)oc2c1 39.8 µM [activator, single point]
CCOC(=O)c1cc2c(=O)n3ccccc3nc2n(Cc2ccco2)c1=NC(=O)c1ccccc1OC 14.1 µM [activator, partial curve]
COCCCNc1oc(/C=C/c2ccccc2)nc1C#N 20 µM [activator, partial curve]
CC(C)CC(OC(=O)c1nsc(Cl)c1Cl)C(=O)NCC1CCCO1 (stereo not given) 25.1 µM [activator, partial curve]
Cc1ccc(SCC(=O)Nc2cccc(-c3nc4cc(Cl)ccc4o3)c2C)cc1 39.8 µM [activator, single point]
CCCOc1ccc(CNC(=O)C2CCN(c3nc4ccccc4nc3C(F)(F)F)CC2)cc1 31.6 µM [activator, partial curve]
COCCNC(=O)C(=O)Nc1c2c(nn1-c1ccccc1)CS(=O)(=O)C2 44.7 µM [activator, partial curve]
CC(=O)c1c(C)[nH]c(C(=O)Nc2cc(F)ccc2C)c1C 35.5 µM [activator, single point]
COc1ccc(-c2cc3ccc(O)c(CN4CCN(CCO)CC4)c3oc2=O)cc1OC 25.1 µM [activator, partial curve]
Cc1noc(NS(=O)(=O)c2ccc(NC(=O)c3nn(-c4ccccc4)ccc3=O)cc2)c1C 17.8 µM [activator, partial curve]
COC(=O)c1ccc2nc(NC(=O)CCS(=O)(=O)c3ccccc3)sc2c1 39.8 µM [activator, partial curve]
O=C(COc1ccc2oc3c(c2c1)CCCC3)Nc1ccc(Cl)cc1 28.2 µM [activator, single point]
CCOc1ccc(NC(=O)Cn2cc(C(=O)c3ccc(OCC)cc3)c(=O)c3cc4c(cc32)OCCO4)cc1 28.2 µM [activator, partial curve]
Cc1cc(C)c(Cn2c(=O)n(-c3ccccc3Cl)c(=O)c3c(C)c(C(=O)N(C)C)sc32)c(C)c1 39.8 µM [activator, single point]
Nc1c(-c2cccs2)cnc2c(-c3ccc(F)cc3)cnn12 35.5 µM [activator, single point]
Brc1cc(Br)c2nc(-c3ccc(N4CCOCC4)cc3)ccc2c1 28.2 µM [activator, partial curve]
Cn1c(=O)[nH]c2c(Cl)nccc21 22.4 µM [activator, partial curve]
O=S(=O)(c1ccc2nc(Nc3ccc(F)cc3)ccc2c1)N1CCCC1 35.5 µM [activator, single point]
CCN(C(=O)c1ccco1)c1nnc(-c2ccc(OC)cc2)s1 39.8 µM [activator, single point]
Cc1nc(NC(=S)NC(=O)COc2ccccc2Cl)ccc1Br 39.8 µM [activator, single point]
CCN(CC)C(=O)C1CCCN(c2ncnc3c2c(-c2ccccc2)cn3-c2cccc(C)c2)C1 (stereo not given) 39.8 µM [activator, single point]
COc1ccc(C(C)=O)cc1COC(=O)c1cnc(C)cn1 28.2 µM [activator, partial curve]
O=C(Cn1c(=O)n(-c2ccccc2Cl)c(=O)c2sc3ccccc3c21)NC1CCCC1 35.5 µM [activator, single point]
COc1ccc(-n2nnnc2-c2nc3ccccc3s2)cc1 28.2 µM [activator, single point]
CCN1CCN(c2nc3c(C)cccn3c(=O)c2/C=C(\C#N)C(=O)NC)CC1 28.2 µM [activator, partial curve]
COc1ccc(CNC(=O)c2cc3c(=O)n4cccc(C)c4nc3n(CC3CCCO3)c2=N)cc1 (stereo not given) 5.62 µM [activator, partial curve]
Cc1ccc(NC(=O)C(C)Sc2nc3c(c(=O)[nH]2)CCCC3)cc1Cl (stereo not given) 31.6 µM [activator, partial curve]
COc1ccc(CN2C(=O)c3cccnc3C2=O)cc1S(=O)(=O)N1CC(C)Oc2ccccc21 (stereo not given) 15.8 µM [activator, partial curve]
COc1ccc2oc(C(=O)Nc3nnc(C)s3)c(C)c2c1 39.8 µM [activator, single point]
CCOc1ccc(NC(=O)c2sc(NC(C)=O)c(C(=O)OC)c2C)cc1 28.2 µM [activator, single point]
CCOC(=O)CSc1nc(=O)n2cc(C)ccc2n1 25.1 µM [activator, partial curve]
Cc1ccc(CNC(=O)c2cc3c(s2)CN(Cc2ccccc2)C3)cc1 39.8 µM [activator, single point]
O=C(NCCc1ccccc1)c1ccc(Cn2c(=O)c3cccn3c3cccnc32)cc1 39.8 µM [activator, single point]
COc1ccc(CNc2nc3c(-c4ccc(C)cc4)nnn3c3ccccc23)cc1 28.2 µM [activator, single point]
COCCNc1oc(/C=C/c2ccccc2)nc1C#N 11.2 µM [activator, partial curve]
CCC(C)NC(=O)Cc1c(OC)ccc2cc(Br)ccc12 (stereo not given) 10 µM [activator, partial curve]
COc1ccc2nc(SCC(=O)NC3CC3)c(C#N)cc2c1 39.8 µM [activator, single point]
NS(=O)(=O)c1ccc(CCNC(=O)C(=O)c2cn(CC(=O)N3CCOCC3)c3ccccc23)cc1 35.5 µM [activator, single point]
Cc1cccc(-n2ccc(=O)c(C(=O)Nc3ccc(S(=O)(=O)Nc4nccc(C)n4)cc3)n2)c1 15.8 µM [activator, partial curve]

Potency, active:
COCCCNC(=O)c1sc2nc(C)c(C(=O)Nc3ccc(Cl)cc3)c(-c3ccc(Br)cc3)c2c1N 35.5 µM
Cc1cccn2c(=O)c(/C=C3\SC(=S)NC3=O)c(NCCCN3CCOCC3)nc12 5.01 µM
CCn1c(=S)[nH]c2scc(-c3cccs3)c2c1=O 15.8 µM
CCOC(=O)CCCCC(=O)c1[nH]c(=O)[nH]c1CSc1nnc2c3cc(Br)ccc3n(C)c2n1 14.1 µM
Cc1ccc(O)c(N=CC2=C(O)c3ccccc3C2=O)c1 28.2 µM

activation, inactive:
COC(=O)N/N=C/c1ccc(Oc2ccccc2)cc1 -3.43%
CCCOC(=O)NC(CC)COC(=O)Nc1cccc(C)c1C (stereo not given) 0.483%
COc1ccc2oc(-c3ccc(C)c(NC(=O)c4sc5ccccc5c4Cl)c3)nc2c1 2.29%
CCOC(=O)c1sc(NC(=O)c2ccccc2OC)nc1C 10.9%
COc1ccc(NC(=O)/C(Cl)=C(/Cl)S(=O)Cc2ccccc2Cl)cn1 (stereo not given) 0.0821%
Cc1oc(-c2ccc(-c3ccccc3)cc2)nc1CN1CCN(CC(=O)N(C)C)CC1 -1.61%
CCc1cc(=O)n2c([nH]c3ccccc32)c1C#N -1.34%
CCn1cc2nc(SCc3cccc(OC)c3)n(Cc3ccc(Cl)cc3)c(=O)c2n1 1.91%
O=C(NCc1ccccc1Cl)c1cnc(N2CCCCC2)c2ccccc12 12.5%
Cc1ccc(Cl)cc1N1CCN(C(=O)c2cn(CC(C)C)c(=O)c3c2c2ccccc2n3C)CC1 5.61%
Cc1cn2c(=O)cc(COc3cccc(NC(=O)c4ccccc4Cl)c3)nc2s1 -4.36%
COc1ccc(-c2cc3nc(C)c(CCC(=O)Nc4ccc(F)cc4F)c(C)n3n2)c(OC)c1 3.04%
CC(C)(C)c1nnc(NC(=O)c2ccc3c(c2)OCO3)s1 3.74%
CCCc1ccc(OC(C)c2nc(-c3ccc(-n4cccc4)cc3)no2)cc1 (stereo not given) 1.09%
O=C(O)CCC(=O)N1CCN(S(=O)(=O)c2ccc3ccccc3c2)CC1 -0.219%
O=[N+]([O-])c1ccc(/C=N/Nc2ccc3ccccc3c2)o1 0.0747%
CNc1ncnc2ccc(-c3c(C)noc3C)cc12 -0.767%
COc1ccc(S(=O)(=O)N2CCN(CC(=O)Nc3cc(Cl)ccc3Cl)CC2)cc1 -0.604%
COC(=O)c1c(NC(NC(=O)CC(C)C)C(Cl)(Cl)Cl)sc2c1CCC2 (stereo not given) 0.041%
O=C(Nc1cccc(NC(=O)c2cncc(Br)c2)c1)c1cncc(Br)c1 2.2%
Cc1occc1C(=O)Nc1ccc2c(c1)CCC2 0.237%
